Assay results published in PubChem BioAssay AID1508624 (National Center for Advancing Translational Sciences (NCATS), 2021).
Screen size: about 48,000 compounds; about 120 (0.25%) were called active. About 4% were inconclusive and are not listed. Calls follow the shape of the dose curve; as a rule, active = well fitted activation curve with a large enough effect; inconclusive = small, poorly fitted or top-dose-only effect, or another doubt; inactive = no such curve, though single readings can be large or run the other way. This is one part of the list.

Assay: Primary qHTS for Identification of Small Molecule Activators of Huntingtin-Antisense Promoter Activity; also: nearly all actives have a fitted effect of over 55% in size
Settings: HEK293 HTT-AS promoter firefly luciferase reporter, 24 h; series mostly up to 57.5 µM; activity change, positive = activation: at the top concentration
Summary of the method: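 Quantitative HTS used concentration series of up to 57.5 uM final on HEK293 luciferase reporter cells, 24 h at 37 degrees C. Readout was Dual-Glo firefly luminescence.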

Activity change, positive = activation, inactive:
CCN(C(=O)C1CCCN(c2ncnc3c2nc2n3CCCCC2)C1)c1cccc(Cl)c1 (stereo unspecified) -37%
Cc1cc(NC(=O)c2ccc(NC(=O)CCS(=O)(=O)c3cccs3)cc2)ccc1Br 12.4%
Cc1c(CCNC(=O)C(C)(C)C)sc2nc(-c3ccc(F)cc3)nn12 -30.2%
COc1cccc(NS(=O)(=O)c2ccc3[nH]cc(C(=O)N4CCCC4)c(=O)c3c2)c1 -5.13%
CC(=O)c1ccc(NC(=O)COCc2cc(-c3ccc(F)cc3)on2)cc1 -10.6%
COc1ccccc1NC(=O)C1=C(C)Nc2nc(SCc3ccccc3)nn2C1c1ccncc1 (stereo unspecified) -8.03%
COc1ccc(Cl)cc1NC(=O)CCn1c(=O)oc2ccccc21 -13%
Cc1ccccc1NC(=O)CSc1ccc(-c2cccs2)nn1 -14.2%
O=c1[nH]c(SCc2ccc([N+](=O)[O-])cc2)nc2c1CCCC2 -5.17%
COc1ccc(NC(=O)Nc2nnc(N(CC(C)C)CC(C)C)s2)c(OC)c1 -20.3%
CCN(C(=O)c1cc2c(s1)-c1ccccc1OC2)c1cccc(C(F)(F)F)c1 -31.3%
COc1ccc(NC(=O)c2cc(C3CC3)nc3c2c(C)nn3-c2ccccc2)cc1OC -31.9%
O=C(Cn1c(-c2cccs2)cc2ccccc21)NCCCN1CCN(c2ccccc2F)CC1 -40.5%
Cc1ccc(NC(=O)c2c(NC(=O)C(F)(F)F)sc3c2CCCCC3)cc1 -94.5%
Cc1ccc(CNC(=O)Cn2cccc2C(=O)c2ccccc2C)cc1 22.1%
O=C(CSc1nnc(COc2ccccc2)o1)Nc1cc(C(F)(F)F)ccc1Cl 9.62% [at 11.5 µM, percent change from vehicle, -100% = no light]
O=C(Cn1ncc2c3ccccc3n(Cc3ccc(F)cc3)c2c1=O)NCCCN1CCCCC1 -12.7%
N#Cc1c[nH]n2c(NC3CCCC3)c(-c3ccc(Cl)cc3)nc12 -7.59%
Cc1ccccc1C(C(=O)NC1CCCCC1)N(C(=O)CNc1ccc(C#N)cc1)c1cccc(F)c1 (stereo unspecified) 0.442%
CCc1ccc(NC(=O)C(=O)NCCc2sc3nc(-c4ccc(OC)cc4)nn3c2C)cc1 5.75%
Cc1ccc(CNc2nc3ccc(C)cc3n3nnnc23)cc1 14.6%
Cc1ccc(CCNC(=O)c2c(C)nn(-c3ccc(F)cc3)c2-n2cccc2)cc1 -28.6%
O=C(CCS(=O)(=O)c1cccc2nonc12)Nc1ccc(Br)cc1 -4.44%
CC1=C(C(=O)Nc2ccccc2)C(c2ccc(O)cc2)n2nc(SCc3ccccc3)nc2N1 (stereo unspecified) -6.62%
CCOc1ccccc1NC(=O)N1CCC2(CC1)Oc1ccccc1C(=O)N2Cc1ccccc1F -26.2%
COc1ccc2c(c1)CCc1sc(NC(=O)c3ccc(Cl)cc3)nc1-2 -25.8%
CCC1=Nc2cc(C(=O)NC(C)c3ccccc3)ccc2Sc2ccc(Cl)cc21 (stereo unspecified) -17.9%
COCCCNC(=O)CN1C(=O)COc2ccc(S(=O)(=O)N3CCCCCC3)cc21 -2.8%
COc1ccc(-n2c(=O)c3ccccc3n(CC(=O)NCCc3ccccc3)c2=O)c(OC)c1 -5.66%
Cc1ccc(NC(=O)CCc2c(C)nc3c(-c4ccccc4)c(C)nn3c2C)c(C)c1 -10.7%
CC1CCN(S(=O)(=O)c2cn(CC(=O)Nc3ccc(F)c(Cl)c3)c(=O)c3ccccc23)CC1 -33.5%
Cc1cccc(-n2cc(-c3ccccc3)c3c(NC(C)C)ncnc32)c1 -20.1%
COC(=O)c1ccccc1NC(=O)CN(c1ccccc1OC)S(C)(=O)=O -17.4%
Cc1ccc(NC(=O)CSc2nc(-c3ccc(F)cc3)nc3c2Cc2c(CO)cnc(C)c2O3)cc1C -11.3%
CN(Cc1ccccc1)C(=O)CCS(=O)(=O)c1cc(Br)cc2c1N(C(=O)C1CC1)CC2 -15%
O=C(CSc1nccn1-c1cccc(Cl)c1)Nc1cccc(C(F)(F)F)c1 -16.9%
CCCN1C(=O)C(O)(CC(=O)c2ccc(CC)cc2)c2cc(Br)ccc21 (stereo unspecified) -24.4%
Cc1cccc(OCC(=O)Nc2nonc2-c2ccc(Br)cc2)c1C -18.2%
CCOc1ccc(CC(=O)Nc2ccc3c(c2)N(C)C(=O)c2ccccc2S3)cc1OCC -30%
O=C(COc1ccc(Cl)cc1)Nc1sc2c(c1C(=O)Nc1cccc(Cl)c1)CCCC2 -9.99%
Cc1cccc(C)c1-n1ncc(C(=O)NCc2ccc3c(c2)OCO3)c1C1CCN(C(=O)OC(C)(C)C)CC1 0%
CCc1ccc(OCC(=O)N(Cc2ccc(C)cc2)Cc2ccco2)cc1 -14.3%
O=C(Nc1ccc(OC(F)(F)F)cc1)C1CCCN(S(=O)(=O)c2cccc3nonc23)C1 (stereo unspecified) -10.4%
CC(=O)N1c2ccc(S(=O)(=O)NCC3CCC(C(=O)Nc4ccccc4C)CC3)cc2CC1C (stereo unspecified) -29.4%
CCCCN(C)CCCNC(=O)c1cc(=O)[nH]c2ccc(S(=O)(=O)N3CCCCC3)cc12 -10.7%
O=C(C1CCC1)N1CCc2cc(S(=O)(=O)N3CCN(c4ccccc4)CC3)ccc21 -26.2%
CCOc1ccc(-n2cc(C(=O)Nc3ccccc3OCC)c3cc(OC)c(OC)cc3c2=O)cc1 -3.94%
COc1cc2ccccc2cc1C(=O)N1CCN(c2nc3c(C)cc(C)cc3s2)CC1 -21.2%
CCC(C(=O)OCCN1CCOC(c2ccccc2)C1C)c1ccccc1 (stereo unspecified) -19.6%
CCC(C)NC(=O)Cn1c(=O)n(CC2CCC(C(=O)NC)CC2)c(=O)c2sccc21 (stereo unspecified) -10.4%
Cc1cccc(NC(=O)C2CCN(S(=O)(=O)c3cccc4nsnc34)CC2)c1 -26.5%
CC1CCN(C(=O)Cn2cc(SCc3cccc(F)c3)c3ccccc32)CC1 -13%
CCOC(=O)c1c(NC(=O)CS(=O)(=O)c2ccc(C)cc2)sc2c1CCC(C)C2 (stereo unspecified) -15.3%
CCc1ccccc1NC(=O)N1CCN(c2nnc(C)c3c(C)n(-c4ccccc4)nc23)CC1 -3.97%
Cc1ccc2nc(-c3ccccc3O)c(Nc3ccccc3C)n2c1 3.03%
O=C(COc1ccccc1F)Nc1ccccc1OCc1cc(=O)n2ccccc2n1 1.27%
CN1C(CCl)Nc2cc(Cl)c(S(N)(=O)=O)cc2S1(=O)=O (stereo unspecified) -12.7%
CC1CCN(C(=O)Cn2cc(SCc3ccccc3)c3ccccc32)CC1 -9.46%
CC(C)c1ccc(NC(=O)c2ccc(F)c(S(=O)(=O)N3CCCC3)c2)cc1 -20.1%
CCCc1nnc(N2C(=O)c3oc4ccc(F)cc4c(=O)c3C2c2ccc(C(=O)OC)cc2)s1 (stereo unspecified) -1%
COc1ccccc1OCC(=O)Nc1nnc2n1CCS2 4.62%
CN(CC(=O)Nc1cccc(Cl)c1)S(=O)(=O)c1ccc2[nH]c3c(c2c1)CCCC3 -17.5%
COc1ccc2c(c1)cc(CNc1ccc(OC)c(OC)c1)c(=O)n2CC(=O)Nc1ccc(F)cc1 -11.4%
Cc1c(C(=O)Nc2ccc(F)c(F)c2)oc2ccc(S(=O)(=O)N3CCCCC3)cc12 -11.9%
Cc1cn([C@H]2C=C[C@@H](CO)O2)c(=O)[nH]c1=O
O=S(=O)(NCC(c1ccco1)S(=O)(=O)c1ccccc1)c1ccccc1 (stereo unspecified) -2.62%
COc1ccc(N2CCN(C(=O)CCc3c(C)nc4c(-c5ccccc5)c(C)nn4c3C)CC2)cc1 -32%
COc1ccc(CNC(=O)Cn2c(=O)oc3cc(S(=O)(=O)N4CCCCCC4)ccc32)cc1 -24.7%
COc1ccccc1CNC(=O)CCCCn1c(=O)c2ccccc2n(Cc2c(C)cc(C)cc2C)c1=O -13.6%
COc1ccc(CCNC(=O)c2ccc3c(c2)N(Cc2ccc(C)cc2)CCS3)cc1OC -31.1%
CC1=C(C(N)=O)C(c2ccc(C(C)C)cc2)n2nc(SCc3ccccc3)nc2N1 (stereo unspecified) -11.8%
Cc1cc(C)n2nc(SCC(=O)Nc3cc(Cl)ccc3C)nc2n1 -10%
CCOc1ccc(S(=O)(=O)N(CC(=O)Nc2cccnc2)c2ccccc2)cc1 -30.5%
COc1ccc(CNC(=O)CCc2cn(Cc3cc(C)ccc3C)c3ccccc23)cc1OC -24%
O=c1cc(-c2ccccc2)nc(SCc2nc(-c3ccc(C(F)(F)F)cc3)no2)[nH]1 0.459%
CCc1cccc(N(C)C(N)=Nc2cccc3ccccc23)c1 -21.1%
CC(C)(C)c1ccc(-c2nc3cc(NC(=O)c4cc5ccccc5o4)ccc3o2)cc1 -24.2%
COc1ccc(NC(=O)NC2COc3ccccc3C2)c(OC)c1 (stereo unspecified) -4.43%
CC(C)c1ccc(NC(=O)C2CCN(S(=O)(=O)c3cccc4nsnc34)CC2)cc1 -14.7%
O=C(Cn1ccn(-c2cccc(Cl)c2)c(=O)c1=O)NCCc1ccccc1 -6.46%
CC(=O)NS(=O)(=O)c1ccc(N)cc1 1.63%
Cc1c(C(=O)Nc2nc(-c3ccc(F)cc3)ns2)oc2ccc(Br)cc12 -5.04%
Cc1cc(=O)[nH]c2nnc(SCc3ccc(Cl)c(Cl)c3)n12 -1.42%
COc1cccc(NC(=O)CSc2cc(=O)n(C)c3ccc(Cl)cc23)c1 -29.1%
CCCCN(C)CCCNC(=O)CN1C(=O)COc2ccc(S(=O)(=O)N3CCC(C)CC3)cc21 -6.06%
CCOC(=O)N1CCc2c(sc(NCc3sccc3C)c2C(=O)Nc2cc(OC)ccc2OC)C1 -15.2%
CCCCNC(=O)C1CCN(C(=O)N2CC(C)Oc3ccc(Cl)cc32)CC1 (stereo unspecified) -13.4%
CCOc1ccccc1-n1c(C)nc2cc(C(=O)O)ccc21 -7.14%
Cc1cccc(C(=O)N2CCc3cc(CNC(=O)c4ccnn4C)ccc32)c1 -34.4%
CCOc1ccccc1NC(=O)Cc1coc2c(C)c(C)ccc12 -26.2%
CCOc1ccccc1NC(=O)CN1C(=O)COc2ccc(S(=O)(=O)N3CCCCCC3)cc21 -27.3%
N#C/C(=C\c1ccc(F)cc1)C(=O)NCC1CCCO1 (stereo unspecified) 1.45%
Cn1cnc(S(=O)(=O)N2CCCC(C(=O)NCc3ccccc3Cl)C2)c1 (stereo unspecified) -9.94%
Cc1ccc(CCNC(=O)C(CC(C)C)NS(=O)(=O)c2ccc3c(c2)oc(=O)n3C)cc1 (stereo unspecified) -5.89%
CCn1c(=NC(=O)c2ccc(S(=O)(=O)N3CCCCC3)cc2)sc2cccc(OC)c21 -40.7%
CCc1nn2c(-c3ccccc3OC)ccnc2c1-c1ccc(F)cc1 -34%
